Some of the results follow.

The subject of the experiment is T1, C. trachomatis L2/434/Bu expressing GFP (CTL2-GFP).
T1 construct: L2/434/Bu GFP intracellular growth in HeLa cells
Details: species or system HeLa; C. trachomatis total inclusion area by high-content imaging, normalised to DMSO. Particulars: total inclusion area; 28.5 h, 10 µM; inhibitor. The source says: In this process, we also complemented the assay described above with an imaging-based readout (Fig 1B). After measurements of bulk GFP and resorufin fluorescence, cells were fixed, stained with the DNA dye Hoechst, and imaged at a high-content imaging platform to detect chlamydial inclusions (GFP) and host cell nuclei (Hoechst). The total area and number of inclusions in individual wells and the number of nuclei then served as additional proxies for chlamydial growth and host cell viability. […] MICs were calculated as described above.
For the compound `Cc1n[nH]c(C)c1Sc1ccccc1/N=C/c1ccc([N+](=O)[O-])cc1` [CBK262045], the “% of control remaining” value is given as 102.473.
As to `Oc1cccc(OCCOc2nc3cc(Cl)c(Cl)cc3nc2N2CCCC2)c1` [CBK115778], the “% of control remaining” value is given as 90.6394.
Take `Cc1nc2c(c(=O)[nH]1)CCN(C(=O)c1cc(C3CC3)oc1C)C2` [CBK283753]: the “% of control remaining” value came to 110.799.
Regarding `CCN1CCN(C(=O)CN(C)S(=O)(=O)c2ccc(OC)c(C)c2)CC1` [CBK268880], the “% of control remaining” value turned out to be 65.743.
As for `CCOc1ccc(-c2c3c(c(-c4ccccc4)n2-c2ccc(N)cc2)C(=O)c2ccccc2C3=O)cc1` [CBK262685], the “% of control remaining” value worked out at 73.9115.
As for `CCc1nn(CC(=O)NC2CCCC2)c(=O)c2cc3sccc3n12` [CBK284077], the figure is 91.1833; as for `Cc1cc(-c2nnc(NCc3ccnn3C)o2)c(C)o1` [CBK306446], 26.1251; as for `CC(=O)c1ccc(N2CCN(S(=O)(=O)c3ccc(O)c(C(=O)O)c3)CC2)cc1` [CBK296961], 95.7657.
To `N=c1n(CC(=O)c2ccc(-c3ccccc3)cc2)c2ccccc2n1Cc1ccccc1` [CBK262128B] belongs 78.4798; to `CCc1cc(C(=O)NC(CCn2ccnc2)c2ccccc2)cc(=O)[nH]1` (stereo not shown) [CBK306679], 61.7671.
For `O=C(CSc1nc2ccccc2nc1N1CCCC1)N1CCN(c2ccccc2)CC1` [CBK293977], the “% of control remaining” value came out at 118.294.
Regarding `Cn1cc(CN2CCOC(c3nc(C(C)(C)C)cs3)C2)nn1` (stereo not shown) [CBK304783], the “% of control remaining” value is on record as 93.0218.
Consider `Cc1nc(C)n(CC2CCCN(Cc3nc4ccccc4o3)C2)n1` (stereo not shown) [CBK305828], for which the “% of control remaining” value was 57.0744.
With `Cc1cc(C(=O)Nc2nncs2)c2ccc(F)cc2n1` [CBK297738], the “% of control remaining” value turned out to be 92.7688.
To `Cc1cc(C)n(C(C)CNC(=O)C(C)n2ccnc2)n1` (stereo not shown) [CBK282049] belongs 98.2788; to `COc1ccc(NC(=O)CS(=O)(=O)Cc2ccccc2)c([N+](=O)[O-])c1` [CBK266748], 107.215.
To `O=C(c1cscn1)N1CCC(Cc2ccccc2)CC1` [CBK200188] belongs 59.3606.
Turning to `O=C(CN1CCCC1c1ccc(Nc2ccc(F)cn2)cn1)Nc1ccc(F)cc1` (stereo not shown) [CBK285941], the “% of control remaining” value stood at 109.403.
`O=C(NC1CCCC1)c1ccc2ncccc2c1` [CBK200118]: the “% of control remaining” value came to 93.7661.
`C=C(C)CN1CCN(C(=O)CSc2nccc3ccccc23)CC1` [CBK282712]: the “% of control remaining” value was found to be 107.333.
As for `CN1C[C@@H](NS(=O)(=O)c2ccc(C#N)cc2)C[C@H]1c1nc(-c2ccncc2)no1` [CBK288871], the “% of control remaining” value is 108.907.
As for `CN1CCN(C(=O)c2ccc3nc(-c4ccccc4)c(-c4ccccc4)nc3c2)CC1` [CBK267257], the “% of control remaining” value came to 85.542.

For the origin of these results see publication PMC12040169 (PLOS Biology, 2025).
